In the RNAGym collection of RNA variant scans (doi:10.7554/elife.90254):
The source gives no read counts; variants with many changes may rest on few reads.

B1: LINE1-mini (parent)
chain: GGCAGAGCUCAACACAGCGUGGCAAAGUGGCUGUGGCUAGACUGCC

Variants of: B1
Assay: self-cleavage, relative activity (ratio to wild type); higher = more cleavage; in vitro, sequencing; the parent is a self-cleaving ribozyme

Variant | self-cleavage
A12U C23A C42A U43C | 0.05
C13A A41G C45A | 0.03
C13A C15A U28G G29C G36C U38C C46U | 0.03
A12U C18U C42A | 0.03
A12U C13U U32A | 0.06
A12U G21A A39C C46G | 0.1
C13A C18A U38G | 0.01
A12U A26U G33U | 0.02
C13A C15A U20C A26U | 0.01
A12U G33C C46A | 0.02
C13A A14U A25C G40U | 0.02
A12U U20G A41C | 0.03
C13A A39C U43G C45U | 0.1
A12U C13G A14U G17C C18U | 0.02
A12U C13U U34C G44U C46G | 0.28
A12U C18U U20A | 0.12
A12U C18U U38C | 0.03
C13A A14C C18U | 0.03
A12U G17U U20G | 0.07
A12U U20G C42A | 0.03
C13A C15U C23U | 0.17
C13A A16C G19U | 0.08
A12U U20A C37U C45G | 0
A12U C13A G27A U32G | 0.03

Variant | self-cleavage
C13A A14C C45A | 0.01
A12U U38A A41C | 0.02
A12U A25G C37U | 0
A12U U20A G30U | 0.2
A12U C23G A39C | 0.03
C13A C15U G22A C23A C37A | 0.19
C13A A14U C15U C37U C45A | 0.04
C13A A26U A39C A41C | 0.07
A12U C15A U38C | 0.11
A12U G19A U28G | 0.17
C13A C18A U20G G22C C23A A26U G27U U28G G30C | 0.01
A12U G22A G35U | 0.14
A12U C23A C31U | 0.07
A12U G19A U20G A26U | 0.24
C13A C15U G40U | 0.3
C13A A25G G44A | 0.07
A12U U20G C45A | 0.02
A12U U32A U34A | 0.02
C13A G17C A25C | 0.02
C13A A14C C37A G44U | 0.09
A12U C13U G21U G29U | 0.06
A12U G17A G27C G30A C31U U38A C45G | 0.03
A12U C15A C18A | 0.03
A12U G19U C42U | 0.17

Variant | self-cleavage
A12U G17U C31U C42U | 0.11
A12U G36A A41G | 0.01
C13A C18A C23U C31G A41U | 0.09
A12U G17A G36C G40C A41C C45U | 0.01
C13A A14G G22U | 0.08
C13A C15A G27U | 0.08
A12U C23G A24C C45A | 0.15
A12U G17U C31U | 0.15
A12U C15A G21U | 0.07
A12U C15U U43C | 0.15
C13A A16U U20A G35U U38C | 0.04
C13A A26U G30C C31U A39G | 0.19
A12U U20A G36A A41G | 0.05
C13A A14G G27A C37A | 0.04
A12U C13U U20G G29A | 0.16
C13A A26C C45U | 0.1
A12U A26G U32G | 0.02
C13A G17C A24U A26C G44A | 0.09
C13A C23A G44A | 0.97
C13A G19C G22C U32C | 0.03
C13A C18A C31G | 0.07
A12U G21U G27U | 0.06
A12U G21U G27A | 0.49
A12U C13A G44A | 0.05

Variant | self-cleavage
C13A C18G G21U G33U G44A | 0.12
C13A C15U G17A U28C G29U G40U C46U | 0.19
A12U G19A G21U C23G G27A | 0.15
A12U G22A G36U | 0.24
A12U G27C A39U C42U | 0.11
C13A G17A U32C U43A | 0.08
A12U C13G G33U A41G | 0.05
C13A C18A G36A U43C | 0.04
A12U U20A U28C | 0.46
C13A A14G G30U | 0.07
A12U G19A U32A | 0.02
A12U A16U C31U | 0.01
A12U G27C G33A G36A | 0.08
C13A C18A A25U G27U C31A | 0.02
C13A C18A C46A | 0.02
A12U G17A U28G | 0.01
A12U G21U C31A | 0.03
A12U A25C G40A C46A | 0.03
A12U G21U U38A A39G | 0.01
A12U C18A C23A G40A | 0.01
A12U C13A G21U | 0.04
A12U A26U C37A | 0.09
A12U G27U G33U U34G | 0.18
A12U C13U G22U G29C G30A U32G | 0.03

Variant | self-cleavage
A12U C15G C23A C42U | 0.01
C13A C15A G17U C18U U28C C45A | 0.04
A12U C13U G17U G19U C37A | 0.06
A12U C18A C31G G40U | 0.02
C13A A26G A39G | 0.07
A12U G22A G27A U34C | 0.55
A12U A25G G27A | 0.01
A12U G21C U38C | 0.31
A12U C13U C23U G33A U38G | 0.01
C13A A26U C31G G33A C37G | 0.01
A12U U43C C45U | 0.01
A12U C13G C18A | 0.08
A12U C13G C18U | 0.08
C13A G19A U20A | 0.24
A12U C13A G17A C37A A39U U43A | 0.02
A12U G21U G27U U43G C46U | 0.01
C13A G17A U32G | 0.03
A12U A26U G30C | 0.08
A12U C13G C46A | 0.3
C13A C15G G17C U20C C42A | 0.01
A12U A25C C46A | 0.05
C13A A26C G29C | 0.07
C13A C18G G19C A39C | 0.03
A12U G22U G30U C46U | 0.35

Variant | self-cleavage
A12U C13A U34G U43C | 0
C13A A39U C46A | 0.07
A12U C13A U38G C42G | 0
A12U G17A A39U | 0.13
A12U A39C G40C C42U | 0.03
C13A A25U C31A C37U U38G | 0.08
C13A C18A G30C | 0.02
C13A C18A G36U | 0.01
C13A C18A G36A | 0.03
A12U G17A A26U G44C C46U | 0.02
C13A A25C G35A A39U | 0.02
A12U A26U U28C U32C | 0.05
A12U U28C G33U | 0.01
A12U G19A G27U G40C A41C | 0.03
A12U C23A C31G U34C C45A | 0.01
A12U G35C G36C | 0.12
A12U C13G G19U U20A U32A G40A | 0.01
A12U G17U G22C A39U | 0.38
A12U C15A C18A G21U G36C C45G | 0
A12U A25C G27U | 0.05
C13A A14U C15U C18G C23U G29U C46G | 0.03
A12U G22C G27C A39G | 0.02
C13A G17C A24U | 0.06
C13A A26C U34C | 0.03

Variant | self-cleavage
C13A A14U G21C | 0.16
C13A A14U G22A C23G G29A | 0.09
A12U G33C U43C C45A | 0.01
C13A C15A C31G G44A | 0.05
C13A C15G G30C | 0.02
C13A A25U G36C U38C C46A | 0.01
A12U C13U C31G G44U | 0.01
A12U G22C C23G | 0.06
C13A A25C G44U | 0.03
A12U G21U G30A | 0.5
C13A A16U G21C G33A U34C C37G | 0.02
C13A C31U C45U | 0.05
A12U G17U U34C C42U | 0.05
A12U C23G G44U | 0.27
C13A A26U U28G C31G | 0.03
A12U U20A G27A | 0.92
C13A G17A C23U G27A | 0.06
C13A A16C U38G | 0
C13A A16C U38A | 0.23
C13A A14G U28G U32A | 0.04
A12U G19C C23G G40A | 0.03
C13A C23G G33C C42A | 0.04
A12U G17U U32G | 0.05
